Values belong to the binder of their own block, whether it stands above or below them.
Biological target: recombinant human β-Klotho (UniProt Q86Z14 53-996, biotinylated in the AlphaScreen assays (site not stated))
Experiment: binding EC50

UniProt Q86Z14, sequence (Q86Z14 53-996): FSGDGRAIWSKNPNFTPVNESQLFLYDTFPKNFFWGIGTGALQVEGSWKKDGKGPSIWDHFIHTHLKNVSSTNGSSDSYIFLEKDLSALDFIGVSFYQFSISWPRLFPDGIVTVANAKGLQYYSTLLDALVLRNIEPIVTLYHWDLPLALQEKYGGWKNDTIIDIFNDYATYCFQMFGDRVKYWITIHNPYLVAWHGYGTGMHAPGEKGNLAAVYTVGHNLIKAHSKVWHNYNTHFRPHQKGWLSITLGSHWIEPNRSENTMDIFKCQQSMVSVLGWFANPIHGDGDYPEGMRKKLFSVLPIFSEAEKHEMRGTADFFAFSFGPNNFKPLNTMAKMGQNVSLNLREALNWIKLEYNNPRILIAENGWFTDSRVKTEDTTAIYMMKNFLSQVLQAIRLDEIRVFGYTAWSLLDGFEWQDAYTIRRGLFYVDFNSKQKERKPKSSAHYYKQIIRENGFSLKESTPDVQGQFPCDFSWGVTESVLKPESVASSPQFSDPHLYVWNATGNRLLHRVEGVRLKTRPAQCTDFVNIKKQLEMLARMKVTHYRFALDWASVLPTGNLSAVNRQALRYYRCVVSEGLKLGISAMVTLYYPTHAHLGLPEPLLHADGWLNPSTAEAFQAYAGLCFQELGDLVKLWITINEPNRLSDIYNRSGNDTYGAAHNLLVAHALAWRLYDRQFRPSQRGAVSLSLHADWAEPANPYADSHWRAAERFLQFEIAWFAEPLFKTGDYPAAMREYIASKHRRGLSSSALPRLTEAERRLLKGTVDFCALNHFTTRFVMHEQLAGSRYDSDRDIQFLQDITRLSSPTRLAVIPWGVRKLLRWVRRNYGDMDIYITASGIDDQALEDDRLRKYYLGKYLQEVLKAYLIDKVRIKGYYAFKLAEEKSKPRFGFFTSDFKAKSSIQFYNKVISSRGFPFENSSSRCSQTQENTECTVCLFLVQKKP

EC50: 7 nM
B1: β-Klotho walked dimer bKWD38 (designed binder)
chain: CAAGEFQCSSGRCLPRPWVCDGDNDCGDDSDETNCRASAHTCHSFNQFECRNGQCIPLHLVCDGVPDCGDNSDETDCGDSHILPFSTPGPST

EC50: 3.1 nM
B2: β-Klotho walked dimer bKWD28 (designed binder)
chain: CGANEFQCRSTGICVPVEWVCDGDNDCGDGSDEPPVCGDSHILPFSTPGPSTCQPDEFTCSSGRCIPQPWLCDGLNDCGDGSDEPPAHCSAPASEPPGSL
